# Source: article PMC4336329 (PLoS ONE, 2015)
# About 2,200 (0.71%) of roughly 310,000 compounds showed an effect of 50% or more. The effect is printed as a negative number. The list shows a part of the results.
# Biological target: human ether-à-go-go-related gene (hERG) potassium channel (human, UniProt Q12809)
# Assay: primary screen, population patch clamp on CHO cells stably expressing hERG
# human ether-à-go-go-related gene (hERG) potassium channel, sequence (Q12809 whole entry, looked up): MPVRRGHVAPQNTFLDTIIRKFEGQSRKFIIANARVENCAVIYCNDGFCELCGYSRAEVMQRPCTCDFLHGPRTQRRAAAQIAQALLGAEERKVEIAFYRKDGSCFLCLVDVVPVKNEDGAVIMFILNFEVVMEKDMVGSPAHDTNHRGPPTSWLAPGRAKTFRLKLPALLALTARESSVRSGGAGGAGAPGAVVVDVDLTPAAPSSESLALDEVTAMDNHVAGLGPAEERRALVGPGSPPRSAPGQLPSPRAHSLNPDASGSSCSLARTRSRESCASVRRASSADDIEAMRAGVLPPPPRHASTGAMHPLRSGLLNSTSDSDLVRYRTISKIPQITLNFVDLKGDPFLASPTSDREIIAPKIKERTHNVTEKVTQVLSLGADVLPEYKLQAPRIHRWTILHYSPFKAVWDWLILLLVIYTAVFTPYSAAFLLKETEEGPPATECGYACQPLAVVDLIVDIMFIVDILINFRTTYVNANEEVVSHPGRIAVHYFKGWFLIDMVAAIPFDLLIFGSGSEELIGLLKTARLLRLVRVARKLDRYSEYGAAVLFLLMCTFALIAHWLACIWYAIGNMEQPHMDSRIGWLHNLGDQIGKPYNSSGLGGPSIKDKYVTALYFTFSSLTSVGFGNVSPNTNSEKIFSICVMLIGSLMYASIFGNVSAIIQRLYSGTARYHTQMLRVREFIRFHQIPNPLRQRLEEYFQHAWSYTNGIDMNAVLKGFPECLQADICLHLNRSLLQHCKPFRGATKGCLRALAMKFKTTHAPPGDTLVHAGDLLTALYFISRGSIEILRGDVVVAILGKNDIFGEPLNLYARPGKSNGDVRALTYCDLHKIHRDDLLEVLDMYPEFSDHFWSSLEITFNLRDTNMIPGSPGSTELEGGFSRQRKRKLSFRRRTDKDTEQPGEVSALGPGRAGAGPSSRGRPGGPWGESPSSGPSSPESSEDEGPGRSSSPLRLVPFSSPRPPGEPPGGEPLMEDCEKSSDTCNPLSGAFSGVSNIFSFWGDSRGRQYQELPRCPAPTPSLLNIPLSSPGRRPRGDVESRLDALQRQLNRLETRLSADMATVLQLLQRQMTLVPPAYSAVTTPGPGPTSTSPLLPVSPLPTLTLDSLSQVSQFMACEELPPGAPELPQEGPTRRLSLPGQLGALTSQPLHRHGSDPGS
row,Compound,"hERG current change (%, negative = inhibition) at 1uM [%]"
1,CCOc1ccc(NC(=O)CS(=O)CC(=O)NC2CCCc3ccccc32)cc1 (stereo not shown),15.2
2,CCCc1n(CC(O)COCC2CC=CCC2)c2ccccc2[n+]1C.[I-] (stereo not shown),-5.12
3,COc1ccccc1NC(=O)C1CCN(C(=O)NCc2ccccc2)CC1,8.48
4,COC(=O)CSc1cc([N+](=O)[O-])cc2c1c(C1OCCO1)nn2-c1ccccc1,-0.182
5,CC1CCCC(NS(=O)(=O)c2ccc3c(c2)OCCO3)C1C (stereo not shown),3.3
6,Cc1ccc2nc3c(cc(C(=O)NCC4CCCO4)c(=N)n3CCCOC(C)C)c(=O)n2c1 (stereo not shown),-72.5
7,COc1cc(NC(=O)C/C(C)=N/NC(=O)C2CCCCC2)c(OC)cc1Cl,14.8
8,O=C1N=NC2=C1c1c3ccccc3c(O)n1CC2,11.5
9,CCOP(=O)(O)c1cccc(OCCOCCOc2cccc(P(=O)(O)OCC)c2)c1,-1.31
10,O=[N+]([O-])c1cc2c(cc1C=Nc1ccccc1)OCO2,0.781
11,COc1cc([N+](=O)[O-])ccc1N,13.4
12,COc1ccccc1OCCNC(=O)C1CC(=O)N(c2ccccc2OC)C1 (stereo not shown),2.48
13,c1ccc(Cn2ccnc2)cc1,17.7
14,COc1ccc(-c2csc(Nc3ccccc3)n2)cc1,13
15,CCc1c(C(=O)Nc2ccc(C)c(C)c2)[nH]c(C)c1C(C)=O,16.1
16,O=C(NC1CCCCC1)C(c1ccco1)N(C(=O)c1csnn1)c1ccc(Cl)cc1 (stereo not shown),9.21
17,Cc1c(Cl)cccc1NC(=O)CCC(=O)NNC(=O)CCC(=O)O,5
18,Cc1onc(-c2c(F)cccc2Cl)c1C(=O)Nc1sc2c(c1C#N)CCC(C(C)(C)C)C2 (stereo not shown),19.9
19,COc1ccc(C(=O)NCCc2nnc(SCc3nc4ccccc4c(=O)[nH]3)n2C)cc1,6.64
20,CN(CC(=O)Nc1ccccc1Br)C(=O)CNC(=O)C1CCCCC1,14.5
21,C=CCOC(=O)C1=C[C@@H](c2ccc(Br)cc2)C[C@@H](OCCCCO)O1,5.46
22,O=C(COc1ccc(Br)cc1)Nc1ccccc1C(=O)N1CCOCC1,1.78

row,Compound,"hERG current change (%, negative = inhibition) at 1uM [%]"
1,COc1ccc(C(=O)N(CN2CCCC2=O)c2nccs2)cc1OC,7
2,COc1ccc(NC(=O)C2CCCCN2CC(=O)OCc2ccccc2)cc1OC.O=C(O)C(=O)O (stereo not shown),2.71
3,Nc1ccccc1SC1CC(=O)N(c2ccc3c(c2)OCCO3)C1=O (stereo not shown),12.3
4,Cc1ccc(S(=O)(=O)N2CCNC(=O)CC2)cc1,18.1
5,CC(C)C(O)C1CCN(Cc2nc(Cc3ccccc3Cl)no2)CC1 (stereo not shown),15.5
6,Cc1coc2cc3oc(=O)c(CCC(=O)NC4CC4)c(C)c3cc12,12.8
7,CCOC(=O)C1CCN(C(=O)COC(=O)c2cc(-c3cccs3)nn2-c2ccccc2)CC1,9.01
8,CC(C)c1cc(C(=O)O)c2ccccc2n1,8.5
9,Cc1nn(C)c(C(=O)NNC(=O)Nc2cccc(C(F)(F)F)c2)c1Cl,13.5
10,COc1cccc(N/C(C)=C/C(=O)c2ccc(Br)cc2)c1,6.47
11,CCC(=O)N1CCN(c2ccc(NC(=O)c3cc4ccccc4o3)cc2Cl)CC1,-6.01
12,CC(=O)N/C(=C\c1ccc(F)cc1)C(=O)NC(Cc1ccccc1)C(=O)O (stereo not shown),12.3
13,O=C(COC(=O)c1ccccc1C(=O)c1ccc(Cl)cc1)NCc1ccccc1,8.75
14,COc1ccccc1N(CC(=O)NCCN1CCOCC1)S(=O)(=O)c1ccc(C)cc1,6.43
15,COCC(C)n1c(COc2ccccc2F)nnc1SCC(=O)c1c(N)n(C)c(=O)n(C)c1=O (stereo not shown),14.1
16,COc1ccc2cc(-c3[nH]ncc3CN3CCCC3c3nonc3C)ccc2c1 (stereo not shown),10.5
17,CCCC(Oc1ccc(Br)cc1)c1nc2c3cc(OC)c(OC)cc3nc(=S)n2[nH]1 (stereo not shown),8.35
18,Cc1c(C(=O)N2CCOCC2)oc2ccccc12,5.84
19,COc1cc(CO)ccc1OCc1nnnn1-c1ccc(C)cc1,-0.124
20,O=c1[nH]c(C2CCCN(S(=O)(=O)c3ccccc3)C2)nc2c1nnn2Cc1ccccc1Br (stereo not shown),7.66
21,Cc1ccc(NC(=O)Nc2ncccc2C)cc1,7.31
22,C=CCn1c(CC(=O)OC)csc1=Nc1ccc(C(C)=O)cc1,3.96

row,Compound,"hERG current change (%, negative = inhibition) at 1uM [%]"
1,CCC(Sc1ncccc1Nc1ccccn1)C(=O)O (stereo not shown),13.6
2,COC(=O)c1[nH]c2c(c1C)C(=O)CC(c1ccc(C)cc1)C2 (stereo not shown),8.22
3,COCCNC(=S)N1CCC(c2nc(-c3ccc(F)cc3)no2)CC1,-1.8
4,NC(=O)Nc1cccc2ccccc12,14.1
5,Cl.Clc1ccc(CNCCCSc2ncccn2)cc1Cl,4.07
6,COc1cccc(NS(=O)(=O)c2ccc(NC(C)=O)cc2)c1,-3.96
7,Cc1cc(NS(=O)(=O)c2ccc(NC(=O)COc3ccc(Br)cc3)cc2)nc(C)n1,18.3
8,Cc1cccc(N(C(=O)CNC(=O)c2cccs2)C(C(=O)NC2CCCC2)c2ccncc2)c1 (stereo not shown),8.49
9,Cc1onc(-c2ccccc2)c1C(=O)Nc1ccc(C(=O)N2CCCCC2)cc1,16.6
10,CC1CCCN(C(=O)Cn2c3ccccc3c3nc4n(c(=O)c32)CCS4)C1 (stereo not shown),6.41
11,CC1CCCCC1NC(=O)CN1C(=O)NC(C)(c2ccc(OC(F)F)cc2)C1=O (stereo not shown),-23.2
12,O=C(NCCc1cccs1)C(c1ccccc1)c1ccccc1,20.8
13,O=C(N/N=C/c1ccncc1)c1ccc(-n2cccc2)cc1,1.48
14,Cc1c2cnn(CC(=O)Nc3c(F)c(F)cc(F)c3F)c(=O)c2c(C)n1Cc1ccc(F)cc1,4.46
15,Cc1cc(C(=O)OCC(=O)N(C)c2ccccc2)ccc1[N+](=O)[O-],6.03
16,CC(C)Cn1nc(C(=O)Nc2nnc(C3CC3)s2)c2ccccc2c1=O,7.25
17,Cc1ccc(C2(c3ccccc3)NC(=O)N(CC(=O)NC3(C#N)CCCC3)C2=O)cc1C (stereo not shown),-9.03
18,Oc1ccc(/C=N\Nc2nncc(-c3ccccc3)n2)cc1,12.6
19,O=C(NCc1ccccc1Cl)c1cnccn1,11.5
20,Cc1ccc(Nc2nc(OC(C(F)(F)F)C(F)(F)F)nc(N3CCOCC3)n2)cc1,14.6
21,Cc1ccc2oc(C(=O)N3CCN(C)C[C@@H]3C(C)C)c(C)c2c1,9.07
22,CO/N=C(\CCC(=O)O)c1cccs1,5.27

row,Compound,"hERG current change (%, negative = inhibition) at 1uM [%]"
1,NC(=S)N/N=C1/CCSc2ccc3ccccc3c21,8.16
2,C/C(=N\NC(=O)Nc1ccccc1)c1ccc2ccccc2c1,8.13
3,COc1ccc(CCNC(=O)CCS(=O)(=O)c2ccc3c(c2)oc(=O)n3C)cc1OC,13.1
4,C=CCN(C(=O)CNC(=O)c1cccs1)C(C(=O)NC1CCCCC1)c1cccnc1 (stereo not shown),12.5
5,COc1ccc([N+](=O)[O-])cc1NC(=O)C(C)N(C)Cc1ccc(Br)cc1 (stereo not shown),8.31
6,COc1cccc(C2NC(=O)NC(C)=C2C(=O)Nc2cc(OC)ccc2OC)c1 (stereo not shown),1
7,CS(=O)(=O)Nc1ccc(C2=NN(C(=O)c3ccco3)C(c3ccco3)C2)cc1 (stereo not shown),-23.2
8,Cc1cc(C)n(CCCNC(=O)c2ccc(C)c(S(=O)(=O)N3CCOCC3)c2)n1,8.37
9,COc1ccc(-c2nnc(SCc3ccc(C(=O)O)cc3)n2C)cc1OC,6.22
10,Cc1nn(Cc2ccccc2)c(C)c1C(=O)OCC(=O)c1cc(C)n(C2CC2)c1C,-10.9
11,O=C(CSCc1ccccc1Br)N/N=C/c1ccc2c(c1)OCO2,5.23
12,CC(=O)Oc1cccc(N2C(=O)c3ccc(C(=O)O)cc3C2=O)c1,10.2
13,COc1ccccc1N1CCN(C(=O)C(C)N(c2ccccc2)S(C)(=O)=O)CC1 (stereo not shown),9.88
14,COc1ccc(OCCCC(=O)OC(C)C(=O)Nc2ccccc2[N+](=O)[O-])cc1 (stereo not shown),7.99
15,COC(=O)c1ccc(N2CCN(C)CC2)c([N+](=O)[O-])c1,-12
16,Cn1c(=O)c2c(-c3ccc(OC(F)F)cc3)cc(-c3ccccc3)nc2n(C)c1=O,10.2
17,CCOC(=O)c1cc2c(ccc3nc(C)c(C)c32)[nH]c1C,1.76
18,COc1ccccc1CNC(=S)NCc1ccc(F)cc1,13.4
19,Cn1c(=O)oc2cc(S(=O)(=O)NCC3CCCO3)ccc21 (stereo not shown),6.74
20,CS(=O)(=O)NCCNc1cc(Cl)ccc1[N+](=O)[O-],11.4
21,Cc1ccc([N+](=O)[O-])cc1S(=O)(=O)Nc1ccccn1,17.1
22,O=C(NCc1ccco1)C1CN(S(=O)(=O)c2ccccc2)CCN1S(=O)(=O)c1ccccc1 (stereo not shown),-9.38
